Screen size: about 320,000 compounds; about 9,100 (2.8%) were called active. The inconclusive results got no clear call from the source; some entries with a clear call stand among them for comparison. Calls follow the shape of the dose curve; as a rule, active = well fitted activation curve with a large enough effect; inconclusive = small, poorly fitted or top-dose-only effect; inactive = no such curve, though single readings can be large or run the other way. No potency is given beside an inconclusive call; the fits are too rough.
Assay: qHTS Assay for Rab9 Promoter Activators; also: nearly all actives have a fitted effect of over 60% in size
Conditions: Huh7 Rab9 promoter-luciferase reporter, luminescence, 24 h; series mostly up to 9.22 µM
Summary of the method: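 Stable Rab9-luc Huh7, 1500 cells/well, 2 h settle; cmpd in DMSO, 24 h, 37 °C/5% CO2; luciferase reagent 10 min RT; luminescence.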
With `O=C(CSc1ccccc1)NC1CCCCCCC1` the Potency was inconclusive [activator, partial curve].
With `COc1cccc(-c2nnc(SCC(=O)Nc3cc(C)on3)o2)c1` the Potency was inconclusive [activator, single point].
With `COc1ccccc1Cn1c(/C=C/c2ccccc2)nc2ccccc21` the Potency was inconclusive [activator, single point].
In the case of `COC(=O)c1scc(C)c1NC(=O)CC1NCCNC1=O` (configuration not stated), the Potency is reported as “inactive”.
For `O=C(N/N=C/c1cc([N+](=O)[O-])ccc1O)C12CC3CC(CC(C3)C1)C2`, the Potency was “inactive”.
For `Fc1ccc(N/N=C/c2ccncc2)c(F)c1`, the Potency was inconclusive [activator, single point].
With `Cc1ccc(NC(=O)/C(C#N)=C/c2ccc(C)s2)c(C)c1` the Potency was inconclusive [activator, partial curve, poor fit].
With `CCOC(=O)CN1N=C(/C=C/c2ccc(C(C)C)cc2)CCC1=O` the Potency was inconclusive [activator, single point].
With `COc1cccc(C(=O)OCC(=O)c2c[nH]c3ccccc23)c1OC` the Potency was inconclusive [activator, single point].
For `C=CCn1cccc(C(=O)Nc2ccc(OC)cc2)c1=O`, the Potency was inconclusive [activator, full curve].
In the case of `COc1ccccc1C(=O)Nc1nnc(-c2ccccc2)s1`, the Potency is reported as “inactive”.
In the case of `c1cncc(-c2noc(-c3ccc4ccccc4c3)n2)c1`, the Potency is reported as active: 0.282 µM.
With `COc1ccc(C(=O)/C=C/c2ccc3c(c2)OCCO3)cc1` the Potency was inconclusive [activator, partial curve].
In the case of `O=C(N/N=C/c1cccnc1)c1[nH]ncc1Br`, the Potency is reported as inconclusive [activator, partial curve].
With `CC(C)(C)OC(=O)N/N=C\c1cccnc1` the Potency was inconclusive [activator, single point].
With `O=C(Nc1ncc(Cl)cc1Cl)c1c(F)cccc1Cl` the Potency was “inactive”.
In the case of `Nc1c(C(=O)N2CCCCC2)sc2nc3c(cc12)CCCC3`, the Potency is reported as active: 2.82 µM.
In the case of `CCCc1nn(C)c(C(=O)Nc2ccc(C)c(C)c2)c1Cl`, the Potency is reported as active: 3.16 µM.
In the case of `COc1ccc(O)c(-c2cc(-c3cccs3)[nH]n2)c1`, the Potency is reported as inconclusive [activator, single point].
With `Cc1ccc(NC(=O)c2ccc(CSc3nnc(C)s3)cc2)c(C)c1` the Potency was inconclusive [activator, partial curve].
With `CC#CCCCC(=O)Nc1cccc(C(=O)O)c1` the Potency was active: 3.16 µM.
For `COCCn1c(C)cc(C(=O)COC(=O)c2cncc(Br)c2)c1C`, the Potency was inconclusive [activator, single point].
For `Cc1ccc(CO/N=C\Cc2snc(Sc3ncc(C(F)(F)F)cc3Cl)c2C#N)cc1`, the Potency was “inactive”.
For `O=C(O)c1ccc(-c2nnc(-c3ccccc3)o2)cc1`, the Potency was inconclusive [activator, partial curve].
With `Cc1ccc(-c2cc(=O)c3ccccc3[nH]2)cc1` the Potency was inconclusive [activator, partial curve].
For `CC(CC(=O)Nc1ccc2c(c1)OCCO2)c1ccccc1` (configuration not stated), the Potency was inconclusive [activator, single point].
In the case of `Cn1cnnc1SCC(=O)c1ccc(O)c(O)c1`, the Potency is reported as inconclusive [activator, single point].
With `CCN(CC)CCNC(=O)c1cn(CC)c2cc(N3CCN(C(=O)c4ccco4)CC3)c(F)cc2c1=O` the Potency was inconclusive [activator, single point].
In the case of `CCc1c(C)[nH]c(C(=O)OCc2ccccc2)c1C`, the Potency is reported as inconclusive [activator, partial curve].
With `CCCCn1c(N)c(S(=O)(=O)c2ccc(C)cc2)c2nc3ccccc3nc21` the Potency was inconclusive [activator, single point].
In the case of `Cc1cnc(NC(=O)c2cc3ccccc3o2)s1`, the Potency is reported as inconclusive [activator, partial curve, poor fit].
In the case of `COc1ccc(C(=O)Cc2cc3ccccc3oc2=O)cc1`, the Potency is reported as inconclusive [activator, partial curve].
For `CCN(CC)C(=O)c1cc(-c2ccc(Br)cc2)on1`, the Potency was active: 3.16 µM.
With `CC(C)(C)SCCNC(=O)/C=C/c1ccccc1` the Potency was inconclusive [activator, single point].
With `O=C(Nc1ccccc1)c1cccc(N2CCCC2=O)c1` the Potency was inconclusive [activator, single point].
In the case of `CSc1ccc(CNc2ccc(C)c(C)c2)cc1`, the Potency is reported as inconclusive [activator, partial curve].
With `N#Cc1ccccc1OCC(=O)N1CCN(S(=O)(=O)c2ccc(Cl)cc2)CC1` the Potency was “inactive”.
With `CCCn1cnc2cc(NCc3cccc(OC)c3)ccc21` the Potency was inconclusive [activator, partial curve].
With `Cc1cc2c(cn1)C(CCC#N)(CCC#N)c1ccccc1-2` the Potency was “inactive”.
In the case of `C/C=C/C(=O)OCC(=O)Nc1nc2ccc(C)cc2s1`, the Potency is reported as inconclusive [activator, single point].
With `O=C(COc1cc(Cl)c(Cl)cc1Cl)NC(=O)Nc1ccc2c(c1)OCCO2` the Potency was inconclusive [activator, partial curve].
For `CCC(C(=O)NC1CC(C)(C)NC(C)(C)C1)c1ccccc1` (configuration not stated), the Potency was “inactive”.
For `CCCNc1c(F)c(F)c2c(C)c3ccccc3nc2c1F`, the Potency was inconclusive [activator, partial curve].
For `Cc1c(C(C)(C)C)sc(=NC(=O)c2ccccc2O)n1C`, the Potency was active: 1 µM.
In the case of `CC(=O)CSc1nc2c(c(=O)[nH]c(=O)n2C)n1Cc1cccc(Br)c1`, the Potency is reported as “inactive”.
For `CNC(=O)C1CC(=O)N(c2ccc(OCC(=O)N3CCCC3)cc2)C1` (configuration not stated), the Potency was “inactive”.
With `CCN(CC)CCNC(=O)c1ccc(NC(=O)c2cn(-c3ccc(F)cc3)nc2-c2cccc(OC)c2)cc1` the Potency was “inactive”.
For `O=c1c2[nH]c3ccccc3c2ncn1C1CCCCC1`, the Potency was inconclusive [activator, partial curve].
With `O=C(NCCCN1CCOCC1)c1ccc(CSCc2cccc(Cl)c2)o1` the Potency was “inactive”.
In the case of `O=C1CCCN1CCC(=O)N1CCCC(CO)(Cc2ccccc2)C1` (configuration not stated), the Potency is reported as active: 3.55 µM.
With `Cc1ccc(O)c(C(=O)/C=C/c2ccc3c(c2)OCCCO3)c1` the Potency was inconclusive [activator, single point].
For `Nc1cc(N)nc(SCCOc2ccccc2)n1`, the Potency was inconclusive [activator, partial curve].
For `O=C(c1ccco1)n1c(=S)nc2ccccn21`, the Potency was active: 1.41 µM.
In the case of `Cc1sc(NC(=O)c2ccc(Br)s2)c(C(N)=O)c1C`, the Potency is reported as inconclusive [activator, single point].
For `O=C(Nc1ccc2c(c1)oc1ccccc12)c1ccc2c(c1)OCO2`, the Potency was inconclusive [activator, single point].
In the case of `Cc1cc(C)c(C(=O)COC(=O)CCn2c(C)csc2=O)cc1C`, the Potency is reported as inconclusive [activator, partial curve].
In the case of `CC1CCN(S(=O)(=O)c2ccc(C(=O)Nc3nnc(-c4ccco4)o3)cc2)CC1`, the Potency is reported as “inactive”.
In the case of `CN(Cc1nc2ccccc2[nH]1)Cc1nc(CC2CC2)no1`, the Potency is reported as “inactive”.
In the case of `CC1SCC(=NOCc2ccccc2)CS1` (configuration not stated), the Potency is reported as inconclusive [activator, partial curve].
With `CCOc1ccc(C(O)Cc2nc3ccccc3n2C)cc1` (configuration not stated) the Potency was inconclusive [activator, single point].
For `Cc1c(C(=O)Nc2ccccc2)sc2nc(-c3ccccc3)cn12`, the Potency was inconclusive [activator, single point].
In the case of `Cc1ccc2c(CN3CCC(C)CC3)cc(=O)oc2c1C`, the Potency is reported as inconclusive [activator, partial curve].
With `Cc1cc(C)cc(NC(=O)CSc2nnc(-c3ccccc3C)o2)c1` the Potency was inconclusive [activator, partial curve].
For `CCOC(=O)c1cc2c(nc1N)CC(C)(CC)OC2` (configuration not stated), the Potency was active: 3.16 µM.
In the case of `COc1ccc(-c2nnc(-c3cccnc3)o2)cc1`, the Potency is reported as inconclusive [activator, partial curve].
For `Cc1ccc(/C=N/Nc2ccc3ccccc3n2)o1`, the Potency was active: 0.126 µM.
With `Nc1c(C(=O)NCc2ccccc2)c2nc3ccccc3nc2n1CCCN1CCOCC1` the Potency was “inactive”.
With `C/C(=N\NC(=O)c1ccoc1C)c1ccccc1` the Potency was active: 2 µM.
In the case of `Cc1c(C(=O)NCCC2=CCCCC2)cccc1[N+](=O)[O-]`, the Potency is reported as inconclusive [activator, partial curve].
With `COc1ccc(-c2nc3c4ccccc4ccn3c2CN2CCOCC2)cc1OC` the Potency was “inactive”.
With `CCOC(=O)c1c(NC(=O)c2ccco2)sc2c1CCCCC2` the Potency was “inactive”.
For `CC(C)Cc1nnc(NC(=O)CCC(=O)N2CCC(C)CC2)s1`, the Potency was “inactive”.
With `CC(=O)N1CCN(c2ccc(NC(=O)c3cccc(Cl)c3)cc2)CC1` the Potency was inconclusive [activator, partial curve].
With `O=C(/C(=C\c1ccccc1)c1nc2ccccc2[nH]1)c1ccc(Cl)cc1` the Potency was inconclusive [activator, single point].
For `Cc1ccc(CONC(=O)c2cccc(C)c2)cc1`, the Potency was inconclusive [activator, single point].
With `COc1ccc(Nc2ccc(OC)cc2)cc1` the Potency was inconclusive [activator, single point].
With `COc1ccccc1CN1CN(S(=O)(=O)c2ccccc2)c2nc3ccccc3nc21` the Potency was “inactive”.

From PubChem BioAssay AID485297 (National Center for Advancing Translational Sciences (NCATS), 2010)
Potency is read from the fitted curve at half-maximal effect; tags tell the direction and shape of the fitted curve.
